Results as given in PMC12136788.
The list shows a part of the results.

T1: UNK ZnF1-6 (called full-length) (human, UniProt Q9C0B0 30-357)
T1 sequence: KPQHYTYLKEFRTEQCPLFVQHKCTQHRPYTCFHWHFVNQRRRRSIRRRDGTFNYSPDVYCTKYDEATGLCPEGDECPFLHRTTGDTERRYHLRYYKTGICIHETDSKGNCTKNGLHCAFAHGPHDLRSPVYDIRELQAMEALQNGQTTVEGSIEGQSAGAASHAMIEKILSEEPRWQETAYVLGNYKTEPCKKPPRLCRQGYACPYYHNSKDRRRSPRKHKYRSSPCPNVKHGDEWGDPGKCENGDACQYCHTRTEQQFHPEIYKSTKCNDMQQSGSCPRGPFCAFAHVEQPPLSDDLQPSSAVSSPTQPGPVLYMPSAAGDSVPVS

B1: ENSG00000124766:be:win_1651|3pUTR|ENSG00000124766|bound_else_gene|NA|bound_elsewhere_windowed (ssRNA)
RNA: GGGAGUUCUACAGUCCGACGAUCUCUGCCCAGCCGGAGGGACGCGGAGGAGGAAGAGGGUAGACAGGGGCGACCUGUGAUUGUUGUUAUUGAUGUUGUUGUUGAUGGCAAAAAAAAAAAAGCGACUUCGAGUUUGCUCCCCUUCAACAGAGGAUUGAGCAUCA
B2: chr7:80742675:80742739:-|3pUTR|ENSG00000075223|msi1_unk|total|mutant (ssRNA)
RNA: GGGAGUUCUACAGUCCGACGAUCGCCGCUUGACAAUUCAGUGACUUAAUAUCUAUUCCAUUUGUAUUGUACAUAAAAUUUUCCCGAAAUACACUUUUUUCCAAAGUGUAAGUUUGUGAACCGAUUUCCGCAUGAUGAAACUGUCAACAGAGGAUUGAGCAUCA
B3: chr5:83943476:83943577:-|CDS|ENSG00000164176|msi1|total|mutant (ssRNA)
RNA: GGGAGUUCUACAGUCCGACGAUCAUAAAAAUAAUUUCAAAGAAAGAAGGCUGUGUGACUGACAUUUUUCUGCUCUUCUUUAUCCGGUUUUCCAGGGAAAUUUUGACAAUGACACUCACAGAAAAAAUGUCAUCGACCCUCCCACAACAGAGGAUUGAGCAUCA
B4: chr9:125236489:125236593:-|3pUTR|ENSG00000044574|msi1_unk|total|mutant (ssRNA)
RNA: GGGAGUUCUACAGUCCGACGAUCUGCCGACACUGAUCUGCCCGUGCUGUAAUAUUGUAAAUACUGGACUCAGGAACUUUUGUCCGGAAAAAAUUGAAAGAACUUAAGUCUCGAAUGUAAUUGGAAUCUUCACCUCAGAGUGGACAACAGAGGAUUGAGCAUCA
B5: chr12:106067485:106067586:-|CDS|ENSG00000074590|msi1|total|mutant (ssRNA)
RNA: GGGAGUUCUACAGUCCGACGAUCCCUGAAGAAGCGAAGCAACAGCGAGCAUCGCUCUCACAGCACUGGCUUCAUUGAAGGUGCCGUUGGUCCUGCCUUACCCUCUACUUUCAAGAUGGAGCAGGACUUGUGCAGGACUGGCGUCAACAGAGGAUUGAGCAUCA
B6: chr4:1716041:1716142:-|3pUTR|ENSG00000168936|msi1|FALSE|unique (ssRNA)
RNA: GGGAGUUCUACAGUCCGACGAUCAGGCUUCCUAGAGCGCUCAGCAGGUGAAGGCAGCAGGGGCCAUGGCCGGGAGCCAGGCCUAGCUUUGAACUGAGUUUCAAGGGCUGCCAAAGAGGGGCAGUGGGUUGGGGUUGUUUUUACCAACAGAGGAUUGAGCAUCA
B7: chr2:216674409:216674600:-|3pUTR|ENSG00000115461|msi1|FALSE|unique (ssRNA)
RNA: GGGAGUUCUACAGUCCGACGAUCUCAUGGCAUGACACAGCGGAGACCGCCUCCAACAACGAAUUUGGGGCUACGAAGAGGAAUAGCGAAAAAGCAAAUCUGUUUCAACUGAUGGGAACCCUAUAGCUAUAGAACUUGGGGGCUCAACAGAGGAUUGAGCAUCA
B8: chr2:135724104:135724205:+|CDS|ENSG00000048991|msi1|FALSE|unique (ssRNA)
RNA: GGGAGUUCUACAGUCCGACGAUCCAACACUGCCAACCCUGAACGCUCUAAACCCAGUGACUUGGCCUCCACCUACACCGUCUUAGCCACAUUCCCCUCCAUUUCAGCUGCACAGAAUGCACUGAAGAAACAAAUUAACUCAGUCAACAGAGGAUUGAGCAUCA
B9: chr17:63766011:63766126:-|CDS|ENSG00000108588|unk|total|mutant (ssRNA)
RNA: GGGAGUUCUACAGUCCGACGAUCGGUGUUUGGGAGUGUCUCUGAAGCCAAGUUUGAUGAUUUUGAGGAUGAGGAGGACACCGCCGAGUAUGAUGAUAAUGACUUCGCUGAAUUUGAGGAUGUCAUGGAAGACUCUGUUACUGACAACAGAGGAUUGAGCAUCA
B10: chr20:58360308:58360409:+|3pUTR|ENSG00000124209|msi1|total|mutant (ssRNA)
RNA: GGGAGUUCUACAGUCCGACGAUCCAUUGAACAUGUCCGCCCCGGAUACGUACAGUAAAUUAACAAUGACCGCAGCAGAUGCCCCGCUCAUCCUGGGUUUGCUUCUGACCUUGUCAUGUGUGUGCCACCAAACACGUUAUUGGCCAACAGAGGAUUGAGCAUCA
B11: chr12:125025615:125025697:+|3pUTR|ENSG00000184992|msi1_unk|FALSE|overlapping (ssRNA)
RNA: GGGAGUUCUACAGUCCGACGAUCGGACACAUUCCCAGAAGAGCGGAAAGAUCAUUGACGUGGAACUACACACGAAGUGUAAUUAGUGGGGGAAAAAAUAUUUUUUAAACAAAGGAUAUAACCAUAUUUAGUUGUACAGUAAGACAACAGAGGAUUGAGCAUCA
B12: chr2:190659421:190659522:+|CDS|ENSG00000138386|unk|total|mutant (ssRNA)
RNA: GGGAGUUCUACAGUCCGACGAUCAGAGACUGGGUCACAAACCCUGGGCUUUUCAAUCAGCCACUGACUUCCCUUCCUGUCAGCCGCAUACCCAUCUAUAAAUUACCAGAGGGAUCACCAACAUGGCUGGGAAUAUCCUGCAGUCAACAGAGGAUUGAGCAUCA
B13: chr16:50751694:50751795:+|CDS|ENSG00000083799|unk|total|mutant (ssRNA)
RNA: GGGAGUUCUACAGUCCGACGAUCGCUUUUUCAGUGUGAUGAAGAUUGUGGCGUGUUUGUUGCAUUGGACAAGCCCGAACUCACCGAAGAUGAUGACACUGCAUUGGAAAGUGAUUACGCAGGUCCUGGGGACACAAUGCAGGUCAACAGAGGAUUGAGCAUCA
B14: chr6:138432586:138432687:-|CDS|ENSG00000135540|unk|total|mutant (ssRNA)
RNA: GGGAGUUCUACAGUCCGACGAUCGGAGCCCUGGGAAUACAAAUCCUCAGGUAAUGGAAGGGCAUCCCCCCUGAAGCCGCAUUCCGCAACUCCUGGCUAUUCCACUCCCACAAGUAACAUGAGCAGCUGCAGUUUGGACCAAACCAACAGAGGAUUGAGCAUCA
B15: chr10:27170558:27170670:+|CDS|ENSG00000120539|unk|total|mutant (ssRNA)
RNA: GGGAGUUCUACAGUCCGACGAUCCUUAUGUGUGAACUCGAUGAAGACUGUGAAAAGAACCGUAAGAGGGACUACUUAAGUUCCCGUUUUCUAUGUUCUGAUGAUGACCGAGCUUCUAAAAAUAUUUCUAUGAACUCUGAUUCACAACAGAGGAUUGAGCAUCA
B16: chr16:30603633:30603734:-|3pUTR|ENSG00000156853|unk|total|mutant (ssRNA)
RNA: GGGAGUUCUACAGUCCGACGAUCGUUAAGUACCACAUUCUCCUCUAAACCUUGCCUACGACAUGUUUAAUACUUCAUCUACACCGCAGCCCUUCAGAUAAUCACAACCACUUUGCCCCCAAGUUUUCAGGUUAAGCCGCAUGACAACAGAGGAUUGAGCAUCA
B17: chr7:27100353:27100725:-|three_prime_utr|ENSG00000105996|control|control|control (ssRNA)
RNA: GGGAGUUCUACAGUCCGACGAUCUUUUUUAUUUUCUUCUUGACCUACCCCUUCCCUCCUUUAAGUGUUGAGGAUUUUCUGUUUAGUGAUUCCCUGACCCAGUUUCAAACAGAGCCAUCUUUUACAGAUUAUUUUGGAGUUUUACAACAGAGGAUUGAGCAUCA
B18: chr15:40213340:40213445:+|CDS|ENSG00000156970|unk|FALSE|unique (ssRNA)
RNA: GGGAGUUCUACAGUCCGACGAUCACACAGUGAAUAUAUUACCCAUGAAAUAACAGUGUUGAUUAUUUAUAACCUUUUGACAAUAGUGGAGAUGCUACACAAAGCAGAAAUAGUCCAUGGUGACUUGAGUCCAAGGUGUCUGAUCAACAGAGGAUUGAGCAUCA
B19: chr11:118750849:118750950:-|3pUTR|ENSG00000110367|msi1|total|mutant (ssRNA)
RNA: GGGAGUUCUACAGUCCGACGAUCAUUCCCGAAAGUACUUUGGCCUCGUGCUGCCGAGAGCAGAUUUCUAUGGUACCCUGUGUCCGUAAAGGGGCCCAGAAAUCUGGGAUGUACUGUUUGCUGCCACACUGUCUCAUCCCGUACCAACAGAGGAUUGAGCAUCA
B20: ENSG00000124766:be:win_1701|3pUTR|ENSG00000124766|bound_else_gene|NA|bound_elsewhere_windowed (ssRNA)
RNA: GGGAGUUCUACAGUCCGACGAUCCUGUGAUUGUUGUUAUUGAUGUUGUUGUUGAUGGCAAAAAAAAAAAAGCGACUUCGAGUUUGCUCCCCUUUGCUUGAAGAGACCCCCUCCCCCUUCCAACGAGCUUCCGGACUUGUCUGCCAACAGAGGAUUGAGCAUCA
B21: ENSG00000144824:stop:overlap|stop_codon|ENSG00000144824|stop_codon|NA|stop_codon (ssRNA)
RNA: GGGAGUUCUACAGUCCGACGAUCUGCGGAUCUGGAUGGAUGUUAUAGUUACGGGGGCAGAAGGUUACACUCACUUCUUGUUGUAGUGAACUGAGGCAACAGUCCACUUCAGGGCAGACGGCAAUAAUCUCUUACAAGAAUGAACAACAGAGGAUUGAGCAUCA
B22: chr10:119167843:119167906:-|3pUTR|ENSG00000165672|msi1_unk|FALSE|overlapping (ssRNA)
RNA: GGGAGUUCUACAGUCCGACGAUCUGCAUGAUCCCUCAUCCCUGAAAUUGAGUUUAUGUAGUCAUUUUACUUAUUUUAUUCAUUAGCUAACUUUGUCUAUGUAUAUUUCUAGAUAUUGAUUAGUGUAAUCGAUUAUAAAGGAUACAACAGAGGAUUGAGCAUCA

Target: T1, UNK ZnF1-6 (called full-length)
Test: nsRBNS (natural sequence RNA bind-n-seq); RBNS binding buffer (assumed for nsRBNS): 25 mM Tris pH 7.5, 150 mM KCl, 3 mM MgCl2, 0.01% Triton X-100, 500 ug/ml BSA, 20 U/ml SUPERase-In, 4 C; UNK is unkempt and MSI1 is Musashi-1; names of the RNAs are library labels; protein concentration not given here; high values mean tight binding

Row | Binder | binding signal [enrichment R]
1 | B1 | 0.645
2 | B2 | 0.531
3 | B3 | 0.467
4 | B4 | 0.446
5 | B5 | 0.457
6 | B6 | 1
7 | B7 | 1.65
8 | B8 | 0.977
9 | B9 | 0.558
10 | B10 | 0.483
11 | B11 | 1.71
12 | B12 | 0.861
13 | B13 | 0.721
14 | B14 | 0.798
15 | B15 | 0.313
16 | B16 | 0.83
17 | B17 | 1.15
18 | B18 | 0.529
19 | B19 | 0.836
20 | B20 | 0.598
21 | B21 | 1.02
22 | B22 | 1.29
